Assay results: PubChem BioAssay AID1159614 (National Center for Advancing Translational Sciences (NCATS), 2016)
The whole screen tested about 45,000 compounds, of which about 65 (0.1%) were called active. Calls come from the whole dose curve; as a rule, active = well fitted activation curve with a large enough effect; inconclusive = small, poorly fitted or top-dose-only effect; inactive = no such curve, though single readings can be large or run the other way. The list shows a part of the results.

Molecular target: Galactocerebrosidase (Homo sapiens) (UniProt P54803)
Experiment: A Novel Cell-Based Assay to Identify Small Molecules for B -Galactocerebrosidase; note: 0% is about no effect; nearly all actives have a fitted effect of over 65% in size
Settings: 145M-Twi-hGALC-G270D cells (Twitcher mouse brain line with human GALC G270D), HMU-beta-Gal fluorescence, 48 h; series mostly up to 57.5 µM; activation: at the top concentration
Method in brief: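 Brain-derived Twitcher mouse 145M-Twi cells stably expressing human GALC-G270D or wild-type GALC, treated live, then residual GALC activity read by fluorescence of HMU-b-Gal substrate (0.1 mM final) in citrate-phosphate buffer pH 5.2 with sodium taurocholate. Signal increase indicates enhancement.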

Chain of UniProt P54803 (P54803 whole entry, looked up): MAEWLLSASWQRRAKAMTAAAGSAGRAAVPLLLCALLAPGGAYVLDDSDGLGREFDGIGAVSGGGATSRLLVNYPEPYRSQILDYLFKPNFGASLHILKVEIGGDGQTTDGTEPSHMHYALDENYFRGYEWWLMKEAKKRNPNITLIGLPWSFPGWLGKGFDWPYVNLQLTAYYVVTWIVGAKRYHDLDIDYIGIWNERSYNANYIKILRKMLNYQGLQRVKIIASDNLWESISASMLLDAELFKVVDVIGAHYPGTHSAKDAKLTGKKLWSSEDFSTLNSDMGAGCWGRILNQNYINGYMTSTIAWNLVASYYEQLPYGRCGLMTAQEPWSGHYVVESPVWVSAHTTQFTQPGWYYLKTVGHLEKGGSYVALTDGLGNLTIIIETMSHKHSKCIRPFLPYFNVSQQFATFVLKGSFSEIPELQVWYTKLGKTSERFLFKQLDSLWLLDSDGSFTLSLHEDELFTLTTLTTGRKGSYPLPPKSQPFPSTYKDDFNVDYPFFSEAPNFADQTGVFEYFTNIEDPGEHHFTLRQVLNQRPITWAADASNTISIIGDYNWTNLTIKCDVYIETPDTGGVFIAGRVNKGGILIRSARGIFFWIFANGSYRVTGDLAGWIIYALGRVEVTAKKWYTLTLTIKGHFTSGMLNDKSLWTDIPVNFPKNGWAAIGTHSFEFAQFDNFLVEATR

activation, inactive:
CCN(CC)CCn1c(=N)n(CCOc2ccccc2Cl)c2ccccc21 -23.3%, COc1ccc(C2=C(C)C(=O)N(Cc3ccc(C(=O)Nc4ccc(F)cc4C)cc3)S2(=O)=O)cc1 -3.45%, O=C(NCCc1ccccc1)c1ccc(CSc2nc3cccnc3n2Cc2ccccc2F)cc1 -6.29%, O=C1CN(C(=O)c2ccc(S(=O)(=O)N3CCCCC3)cc2)C(c2ccc(F)cc2)c2cc(Cl)ccc2N1 (stereo unspecified) -11.9%, Cc1cccc(-c2nc(CS(=O)CC(=O)NCc3ccc(Cl)cc3)c(C)o2)c1 (stereo unspecified) -15.8%, CCOC(=O)c1c(C)oc2nc(C)nc(NCC3CCN(Cc4ccccc4C)CC3)c12 -9.89%, Cc1ccc2nc(-c3cccc(NC(=O)c4cccc5c(Cl)cccc45)c3)oc2c1 -14.1%, O=C(NCC(c1cccnc1)N1CCOCC1)C(=O)Nc1ccc(Cl)cc1 (stereo unspecified) -10.8%, COc1ccc(-c2[nH]ncc2C(=O)NCc2cccc(Cl)c2)cc1 0.982%, COc1cccc(-c2cn3c(n2)sc2cc(C(=O)NCc4ccccc4F)ccc23)c1 -8.23%, CCOC(=O)C(=O)CCc1ccccc1 -5.66%, CCOC(=O)c1cc(-c2ccccc2)n(CC(=O)NCc2ccc(C)cc2)c1C -7.61%, CC12CC3CC(C)(C1)CC(N)(C3)C2 -4.88%, COc1ccc(CCNC(=O)C(=O)Nc2ccc(C)c(C)c2)cc1 -14.2%, O=C(Nc1ccc(S(=O)(=O)N2CCOCC2)cc1)c1cc(Cl)ccc1NS(=O)(=O)c1ccc(Cl)s1 -11.8%, CCc1ccc(CNC(=O)c2cnc(N3CCCCC3)c3ccccc23)cc1 2.52%, O=C(CN1C(=O)CC(c2ccco2)Sc2ccccc21)Nc1cccc(C(F)(F)F)c1 (stereo unspecified) -26.1%, N[C@@H](Cc1cc(I)c(O)c(I)c1)C(=O)O -10.8%, CC1CCN(S(=O)(=O)c2cc(C(=O)NCc3ccc(N(C)C)cc3)n(C)c2)CC1 -3.02%, CC(C)c1ccc(S(=O)(=O)c2cn(CC(=O)Nc3ccc(F)cc3)c3ccccc3c2=O)cc1 -9.91%, O=C(CSc1nc2c(c(=O)[nH]1)CCCC2)Nc1ccccc1C(F)(F)F -11.4%, Cc1ccc(-c2nc(C)c(CCNC(=O)C(=O)Nc3cc(C)ccc3C)s2)cc1 -11.4%, Cc1csc2nc(-c3ccc(NS(=O)(=O)c4cccc(F)c4)cc3)cn12 -34.1%, CCc1ccccc1NC(=O)Cn1c(=O)n(Cc2ccccc2)c(=O)c2c(C)c(C(=O)N(C)C)sc21 -11.8%, COCCCNC(=O)CCCN1C(=O)CCn2nc(-c3cccn3C)cc21 -15.4%, Cc1ccccc1CN1c2ccccc2-c2nc(SCC(=O)c3ccc(Cl)cc3)ncc2S1(=O)=O -0.525%, Cc1csc2nc(-c3cccc(NS(C)(=O)=O)c3)cn12 9.41%, CCOc1ccc(NC(=O)Cn2c(=O)cc(C)c3c(C)nn(C)c32)cc1 -5.26%, Cc1ccc(S(=O)(=O)c2c(Nc3ccc(C)c(C)c3)sc(C(=O)c3ccc4c(c3)OCO4)c2N)cc1 -26.6%, CSc1ncc(Cl)c(C(=O)Nc2c(C(=O)Nc3cccc(C)c3)oc3ccccc23)n1 -24.4%, Cc1ccccc1-c1noc(-c2ccc(N3CCC(C)CC3)c([N+](=O)[O-])c2)n1 -2.59%, Cc1c(CN(C)C(=O)c2cc(-c3ccccc3)nc3ccc(Br)cc23)cnn1C -3.75%, COc1cc(CNCCSc2nnnn2C)ccc1OCc1ccccc1C -10.5%, Cc1ccccc1CNC(=O)c1ccc(NC(=O)N2CCCCc3ccccc32)cc1 2.4%, Cc1oc2ccc(NS(=O)(=O)c3ccc(F)cc3)cc2c1C(=O)O -20.7%, CCCOc1ccc(C2=NC(c3ccncc3)=Nc3ccc(C)cc3N2)cc1 -29.9%, Cc1ccc(-c2n[nH]c3c2C(c2ccccc2Cl)N(c2ccc(C(=O)O)cc2)C3=O)cc1 (stereo unspecified) -13.9%, O=C(Nc1c(C(=O)c2ccccc2)oc2ccccc12)c1ccc(F)cc1 -9.65%, Cc1ccc(C(=O)c2cn(CC(=O)NCc3ccccc3)c3nc(C)ccc3c2=O)cc1 -14%, COc1ccc(OC)c(NC(=O)N2CC(C)Oc3ccc(C)cc32)c1 (stereo unspecified) -21.1%, COc1cccc(C(=O)Nc2ccc3nc4n(c(=O)c3c2)CCCCC4)c1 -13.8%, Cc1ccc(O)c(Nc2nc3ccccc3c3nncn23)c1 -10.1%, COc1ccc(C(=O)Nc2nc(-c3nnn(-c4ccc(F)cc4F)c3C)ns2)cc1 -22.1%, Cc1cc(C)n(CC(=O)Nc2cc(F)ccc2F)c(=O)c1C#N 9.06%, CC(C)c1nc2ccc(C(=O)NCCCN3CCN(c4ccccc4)CC3)cc2o1 -14.2%, O=C(CN1CCN(Cc2ccc(F)cc2Cl)C1=O)NCCc1ccc(Cl)cc1 -11.4%, CCOc1ccc(C(=O)Nc2ccc3oc(-c4cccc5ccccc45)nc3c2)cc1 -3.74%, O=C1CN(C(=O)c2ccc(S(=O)(=O)N3CCCC3)cc2)C(c2ccccc2)c2cc(Cl)ccc2N1 (stereo unspecified) -3.59%, COc1ccc(Cl)cc1NC(=O)CSc1nnc2[nH]c(=O)cc(C)n12 -14.2%, CCOc1ccc(-c2nc(C(N)=O)c3c(n2)n(-c2ccc4c(c2)OCO4)c(=O)n3CC)cc1 -11%, COc1ccccc1CNc1ncnc2c1c(-c1ccccc1)cn2-c1ccc(Br)cc1 -7.43%, COc1cc2c(=O)c(C(=O)c3ccc(F)cc3)cn(Cc3cccc(F)c3)c2cc1OC -7.42%, Cc1ccc(C(=O)NCCC(C)C)cc1NC(=O)c1nsc2ccccc12 -5.63%, CCN(CC)c1ccc(NC(=O)Cn2c3ncccc3c(=O)n2-c2ccccc2)c(C)c1 -15.1%, CC1=C(C(N)=O)C(c2ccccc2F)n2nc(-c3ccc(Cl)cc3)nc2N1 (stereo unspecified) -5.29%, COC(=O)c1cc(S(=O)(=O)N2CCN(c3cc(Cl)ccc3C)CC2)c[nH]1 5.67%, O=S(=O)(NCC(c1ccco1)N1CCOCC1)c1ccc(F)cc1 (stereo unspecified) 2.65%, Cc1cc(C)c2oc(C(=O)Nc3c(C(=O)c4ccccc4)oc4ccccc34)cc(=O)c2c1 -14.9%, Cc1ccc(CNC(=O)Cn2cc3c(n2)-c2c(oc(C(=O)N4CCOCC4)c2C)CC3)cc1 -3.85%, CCN(CC)CC(=O)Nc1c(C)cccc1C(=O)OC -7.69%, Cc1ccc2c(C)c(C(=O)N3CCC(c4nc5ccccc5s4)CC3)oc2c1C -18.7%, COc1cc(OC)c(OC)cc1CN1CCc2nc(N3CCN(c4ccccc4F)CC3)ncc2C1 -10.6%, O=C(Nc1ccccc1C(F)(F)F)Nc1c[nH]c(=O)[nH]c1=O 6.3%, COc1ccc(Nc2c(-c3ccco3)nc3cccc(C)n23)cc1 -10.9%, Cc1c(C(=O)OC2CCCCC2)[nH]c2c1C(=O)CC(c1ccccc1)C2 (stereo unspecified) -19.4%, Cc1ccc(OCC(=O)N(Cc2ccc(Cl)cc2)CC2CCCO2)cc1C (stereo unspecified) -8.39%, COc1ccc(C2C=C(c3ccccc3)Nc3nc(NS(=O)(=O)c4ccc(C)cc4)nn32)cc1 (stereo unspecified) -15.7%, O=S(=O)(c1cccc(C(F)(F)F)c1)N1CCC(Oc2ccc(-n3cnnn3)cc2)CC1 -15.2%, CCC(C)NC(=O)CSc1nc2c(sc3ccccc32)c(=O)n1CCc1ccccc1 (stereo unspecified) 4.89%, Cc1ccc2oc(=O)c3cnn(CC(=O)N4CCN(c5cccc(C(F)(F)F)c5)CC4)c3c2c1 -9.58%, Cc1cc(N2CCN(c3cccc(C(F)(F)F)c3)CC2)n2nc(-c3ccccc3C)nc2n1 -9.8%, CCN(CC)S(=O)(=O)c1ccc2c(c1)N(CC(=O)NCc1ccc(F)cc1)C(=O)CO2 -14.3%, CN(C)c1ccc(C2CC(c3c(O)n(C4CCCCC4)c(=O)[nH]c3=O)=Nc3ccccc3S2)cc1 (stereo unspecified) 4.22%, CCCN1CCc2nc(SCC(=O)Nc3ccc(C)c(Cl)c3)[nH]c(=O)c2C1 -9.96%, COc1ccc(NC(=O)C2=C(C)Nc3c(C(=O)Nc4ccc(C)cc4)cnn3C2c2cc(OC)ccc2OC)cc1 (stereo unspecified) 2.57%, COc1cccc(NC(=O)Cn2c(=O)n(Cc3ccccc3)c(=O)c3c2c2cc(C)ccc2n3C)c1 -2.57%, COC(=O)c1ccc(NC(=O)CCn2cccn2)cc1 -13%, CCOc1ccc(C(=O)N2CCC(c3nc(-c4ccc(S(=O)(=O)N5CCCC5)cc4)no3)CC2)cc1 -12%, c1ccc(CSc2nnc(C3CCNCC3)o2)cc1 -10.6%, CCOc1ccc(NC(=O)N(Cc2ccc(CC)cc2)Cc2cn[nH]c2-c2ccc(OC)cc2)cc1 -9.43%, COc1cccc(Oc2nc3c(c(=O)n(Cc4ccccc4Cl)c(=O)n3C)n2C)c1 -24.3%, CCOc1ccc(-c2cc3c(=O)n(Cc4nc(-c5ccc(OC)cc5OC)oc4C)ccn3n2)cc1Cl 15.3%, O=c1[nH]c2ccc(NCc3ccc(-c4ccccc4F)o3)cc2[nH]1 -8.36%, Cc1ccc(C(C)C)c(OCC(=O)Nc2cccc(-c3nc4ncccc4o3)c2)c1 2.23%, CCOc1ccc(Cc2nccc3cc(OCC)c(OCC)cc23)cc1OCC -11.8%, COc1ccc(C(=O)N2CC(=O)Nc3ccc(C)cc3C2c2ccc(F)cc2)c(OC)c1 (stereo unspecified) -8.92%, CC(=O)Nc1ccc(S(=O)(=O)NC2=NCN(C(C)C)CN2)cc1 14.3%, COc1ccccc1NC(=O)c1nnn(-c2ccc(F)cc2)c1C -3.58%, Cc1cc(F)ccc1NC(=O)C(C(C)C)N1Cc2ccccc2C1=O (stereo unspecified) -13.8%, COc1ccc(CNC(=O)c2ccc3c(c2)N(Cc2ccccc2)C(=O)c2ccccc2S3=O)cc1 (stereo unspecified) 19%, CCC(=O)N1CCc2cc(Br)cc(S(=O)(=O)CCC(=O)NCCc3ccc(C)cc3)c21 -7.59%, Cc1ccc(Cl)cc1N1CCN(C(=O)Cc2c(C(=O)O)c(C)cn2C)CC1 -6.03%, Cc1sc2ncn(CC(=O)N3CCN(c4ccccc4F)CC3)c(=O)c2c1S(=O)(=O)N1CCN(c2ncccn2)CC1 -11.2%, CN(CC(=O)NCc1ccccc1Cl)S(=O)(=O)c1ccc2c(c1)c(=O)n(C)c(=O)n2C 5.73%, O=c1c(-c2cc(-c3ccc(Cl)cc3)nc3c2COc2ccccc2-3)coc2ccccc12 -6.1%, Cc1ccc(-c2cc(C(=O)N3CCN(S(=O)(=O)c4ccc(Br)s4)CC3)[nH]n2)cc1C -10.6%
